Laboratory results reported in the supplement of paper PMC8728848.
This is one part of the list.

Columns and labels:
Assay in all cases: glycan array binding signal (z-score within array); higher = stronger binding
Details in all cases: glycan notation: IUPAC condensed, linker removed
Gal3S(b1-4)Glc = biological target: Gal3S(b1-4)Glc
How it was run: (§1)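 Columns mapping to the same glycan were averaged after glycan names were converted to IUPAC-condensed notation. The data come from 3228 arrays in the Consortium for Functional Glycomics database, limited to those with an available protein sequence. Binding is reported as a within-array Z-score averaged across arrays of one protein sequence and across linkers.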

Gal3S(b1-4)Glc6S = biological target: Gal3S(b1-4)Glc6S
How it was run: as §1

Gal3S(b1-4)GlcNAc = biological target: Gal3S(b1-4)GlcNAc
How it was run: as §1

[1] = biological target: Gal3S(b1-4)[Fuc(a1-3)]Glc6S
How it was run: as §1

[2] = biological target: Gal3S(b1-4)[Fuc(a1-3)]GlcNAc
How it was run: as §1

[3] = biological target: Gal3S(b1-4)[Fuc(a1-3)]GlcNAc6S
How it was run: as §1

Gal3S4S(b1-4)GlcNAc = biological target: Gal3S4S(b1-4)GlcNAc
How it was run: as §1

Gal3S6S(b1-4)GlcNAc = biological target: Gal3S6S(b1-4)GlcNAc
How it was run: as §1

Gal3S6S(b1-4)GlcNAc6S = biological target: Gal3S6S(b1-4)GlcNAc6S
How it was run: as §1

Gal4S(b1-4)GlcNAc = biological target: Gal4S(b1-4)GlcNAc
How it was run: as §1

Gal4S6S(b1-4)GlcNAc = biological target: Gal4S6S(b1-4)GlcNAc
How it was run: as §1

Gal6P(b1-4)GlcNAc = biological target: Gal6P(b1-4)GlcNAc
How it was run: as §1

Gal6S(b1-3)GlcNAc = biological target: Gal6S(b1-3)GlcNAc
How it was run: as §1

Gal6S(b1-3)GlcNAc6S = biological target: Gal6S(b1-3)GlcNAc6S
How it was run: as §1

Gal6S(b1-4)Glc = biological target: Gal6S(b1-4)Glc
How it was run: as §1

Gal6S(b1-4)Glc6S = biological target: Gal6S(b1-4)Glc6S
How it was run: as §1

Gal6S(b1-4)GlcNAc = biological target: Gal6S(b1-4)GlcNAc
How it was run: as §1

Gal6S(b1-4)GlcNAc6S = biological target: Gal6S(b1-4)GlcNAc6S
How it was run: as §1

GalNAc(a1-3)Gal = biological target: GalNAc(a1-3)Gal
How it was run: as §1

GalNAc(a1-3)GalNAc = biological target: GalNAc(a1-3)GalNAc
How it was run: as §1

[4] = biological target: GalNAc(a1-3)GalNAc(b1-3)Gal(a1-4)Gal(b1-4)Glc
How it was run: as §1

[5] = biological target: GalNAc(a1-3)GalNAc(b1-3)Gal(a1-4)Gal(b1-4)GlcNAc
How it was run: as §1

GalNAc(b1-3)Gal = biological target: GalNAc(b1-3)Gal
How it was run: as §1

[6] = biological target: GalNAc(b1-3)Gal(a1-4)Gal(b1-4)GlcNAc
How it was run: as §1

[7] = biological target: GalNAc(b1-3)Gal(a1-4)Gal(b1-4)GlcNAc(b1-3)Gal(b1-4)Glc
How it was run: as §1

[8] = biological target: GalNAc(b1-3)Gal(a1-6)Gal(b1-4)Glc
How it was run: as §1

GalNAc(b1-3)GalNAc = biological target: GalNAc(b1-3)GalNAc
How it was run: as §1

GalNAc(b1-3)GlcNAc = biological target: GalNAc(b1-3)GlcNAc
How it was run: as §1

GalNAc(b1-4)Gal(b1-4)Glc = biological target: GalNAc(b1-4)Gal(b1-4)Glc
How it was run: as §1

GalNAc(b1-4)GlcNAc = biological target: GalNAc(b1-4)GlcNAc
How it was run: as §1

[9] = biological target: GalNAc(b1-4)GlcNAc(b1-2)Man
How it was run: as §1

[10] = biological target: GalNAc(b1-4)GlcNAc(b1-2)Man(a1-3)[GalNAc(b1-4)GlcNAc(b1-2)Man(a1-6)]Man(b1-4)GlcNAc(b1-4)GlcNAc
How it was run: as §1

[11] = biological target: GalNAc(b1-4)GlcNAc(b1-3)GalNAc(b1-4)GlcNAc
How it was run: as §1

GalNAc(b1-4)GlcNAc6S = biological target: GalNAc(b1-4)GlcNAc6S
How it was run: as §1

GalNAc(b1-6)GalNAc = biological target: GalNAc(b1-6)GalNAc
How it was run: as §1

GalNAc3S(b1-4)GlcNAc = biological target: GalNAc3S(b1-4)GlcNAc
How it was run: as §1

GalNAc3S(b1-4)GlcNAc3S = biological target: GalNAc3S(b1-4)GlcNAc3S
How it was run: as §1

[12] = biological target: GalNAc3S(b1-4)[Fuc(a1-3)]GlcNAc
How it was run: as §1

GalNAc4S6S(b1-4)GlcNAc = biological target: GalNAc4S6S(b1-4)GlcNAc
How it was run: as §1

GalNAc6S(b1-4)GlcNAc = biological target: GalNAc6S(b1-4)GlcNAc
How it was run: as §1

Glc(a1-4)Glc = biological target: Glc(a1-4)Glc
How it was run: as §1

[13] = biological target: Glc(a1-4)Glc(a1-4)Glc(a1-4)Glc
How it was run: as §1

Glc(a1-6)Glc(a1-6)Glc = biological target: Glc(a1-6)Glc(a1-6)Glc
How it was run: as §1

[14] = biological target: Glc(a1-6)Glc(a1-6)Glc(a1-6)Glc
How it was run: as §1

Glc(b1-4)Glc = biological target: Glc(b1-4)Glc
How it was run: as §1

B1: Epa22 (Candida glabrata) (protein)
chain: MGSSHHHHHHSSGLVPRGSHMKRALSSQNPFGYPIGCSPQSTNVIPGLTMELYSYPIVSGTPPNCYDASYVDPEYPRTGYLKRKMIGKSTGVTGSLNYKFSVEKACMVKYGNLPAGYNYNEPLTVSNFTMLLYGYFKPQTSGIHTFFVNADDLLYINFGAGNAFDCCKREDSKFKLGEYVAYDIWHVDSSKNKVSLNLEKDVYYPIRMFFNNIGKDSSLDLSFSVNGAVEHITDFSGYLYSVPDQPDACPAPIGYDTTCK
glycan array binding signal (z-score) (Gal3S(b1-4)Glc): -0.201
glycan array binding signal (z-score) (Gal3S(b1-4)Glc6S): -0.37
glycan array binding signal (z-score) (Gal3S(b1-4)GlcNAc): -0.392
glycan array binding signal (z-score) [1]: -0.379
glycan array binding signal (z-score) [2]: -0.388
glycan array binding signal (z-score) [3]: 0.376
glycan array binding signal (z-score) (Gal3S4S(b1-4)GlcNAc): -0.34
glycan array binding signal (z-score) (Gal3S6S(b1-4)GlcNAc): -0.18
glycan array binding signal (z-score) (Gal3S6S(b1-4)GlcNAc6S): 2.14
glycan array binding signal (z-score) (Gal4S(b1-4)GlcNAc): -0.182
glycan array binding signal (z-score) (Gal4S6S(b1-4)GlcNAc): -0.379
glycan array binding signal (z-score) (Gal6P(b1-4)GlcNAc): -0.245
glycan array binding signal (z-score) (Gal6S(b1-3)GlcNAc): 2.98
glycan array binding signal (z-score) (Gal6S(b1-3)GlcNAc6S): 5.95
glycan array binding signal (z-score) (Gal6S(b1-4)Glc): 3.57
glycan array binding signal (z-score) (Gal6S(b1-4)Glc6S): 4.93
glycan array binding signal (z-score) (Gal6S(b1-4)GlcNAc): 2.35
glycan array binding signal (z-score) (Gal6S(b1-4)GlcNAc6S): 4.56
glycan array binding signal (z-score) (GalNAc(a1-3)Gal): -0.378
glycan array binding signal (z-score) (GalNAc(a1-3)GalNAc): -0.38
glycan array binding signal (z-score) [4]: -0.409
glycan array binding signal (z-score) [5]: -0.33
glycan array binding signal (z-score) (GalNAc(b1-3)Gal): -0.4
glycan array binding signal (z-score) [6]: 0.085
glycan array binding signal (z-score) [7]: -0.336
glycan array binding signal (z-score) [8]: -0.363
glycan array binding signal (z-score) (GalNAc(b1-3)GalNAc): -0.424
glycan array binding signal (z-score) (GalNAc(b1-3)GlcNAc): -0.322
glycan array binding signal (z-score) (GalNAc(b1-4)Gal(b1-4)Glc): -0.362
glycan array binding signal (z-score) (GalNAc(b1-4)GlcNAc): -0.38
glycan array binding signal (z-score) [9]: -0.393
glycan array binding signal (z-score) [10]: -0.36
glycan array binding signal (z-score) [11]: -0.401
glycan array binding signal (z-score) (GalNAc(b1-4)GlcNAc6S): -0.344
glycan array binding signal (z-score) (GalNAc(b1-6)GalNAc): -0.388
glycan array binding signal (z-score) (GalNAc3S(b1-4)GlcNAc): -0.316
glycan array binding signal (z-score) (GalNAc3S(b1-4)GlcNAc3S): -0.316
glycan array binding signal (z-score) [12]: -0.379
glycan array binding signal (z-score) (GalNAc4S6S(b1-4)GlcNAc): -0.244
glycan array binding signal (z-score) (GalNAc6S(b1-4)GlcNAc): -0.21
glycan array binding signal (z-score) (Glc(a1-4)Glc): -0.389
glycan array binding signal (z-score) [13]: -0.335
glycan array binding signal (z-score) (Glc(a1-6)Glc(a1-6)Glc): -0.425
glycan array binding signal (z-score) [14]: -0.376
glycan array binding signal (z-score) (Glc(b1-4)Glc): -0.4
